PubChem BioAssay AID1508623 (National Center for Advancing Translational Sciences (NCATS), 2021)
Out of some 48,000 compounds screened, about 450 (0.94%) were called active. Not shown: some 19% with an inconclusive outcome. The call rests on the fitted dose curve; in most records, active means well fitted inhibition curve with a large enough effect; inconclusive means small, poorly fitted or top-dose-only effect; inactive means no such curve, though single readings can be large or run the other way. The list shows a part of the results.

Experiment: Primary qHTS for Identification of Small Molecule Inhibitors of Huntingtin Promoter Activity; further: nearly all actives have a fitted effect of over 50% in size
Details: HEK293 HTT promoter firefly luciferase reporter (activity 0% = vehicle and -100% = no light), 24 h; activity change, negative = inhibition: at the top concentration
Outline: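 HEK293 Fluc reporter, 2,500 cells/well, 24 h pre-culture; cpds up to 57.5 uM final, 24 h 37 degrees C; Dual-Glo, 10 min RT; normalized vehicle = 0%, zero RLU = -100%.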
In the case of `CC(C)(O)C(=O)Nc1ccc([N+](=O)[O-])c(C(F)(F)F)c1`, the “activity change, negative = inhibition” value is reported as inactive: -13.9%.
With `CNC(=O)NC(O)C(Cl)(Cl)Cl` (centres undefined) the “activity change, negative = inhibition” value was inactive: 1.24%.
In the case of `O=C(O)CNC(=O)c1c(O)c2ccccc2n(Cc2ccccc2)c1=O`, the “activity change, negative = inhibition” value is reported as inactive: 2.97%.
With `Cc1ccc(OCC(=O)Nc2ccc(Cl)cc2C(=O)c2ccccc2)cc1` the “activity change, negative = inhibition” value was inactive: 1%.
For `O=S1(=O)N(Cc2ccccc2)CCCN1Cc1ccc(F)cc1Cl`, the “activity change, negative = inhibition” value was inactive: -0.87%.
With `Cc1c(C(=O)c2cccc3ccccc23)c2cccc3c2n1[C@H](CN1CCOCC1)CO3` the “activity change, negative = inhibition” value was inactive: -26.6%.
In the case of `CC1Sc2c(C(=O)O)c(=O)c3cc(F)c(N4CCNCC4)cc3n21` (centres undefined), the “activity change, negative = inhibition” value is reported as inactive: 12.7%.
With `O=c1oc2ccccc2c(O)c1C(CC(O)c1ccc(-c2ccc(Br)cc2)cc1)c1ccccc1` (centres undefined) the “activity change, negative = inhibition” value was inactive: -9.42%.
In the case of `O=C(Nc1ccc(Br)cc1C(=O)c1ccccc1)c1ccccc1`, the “activity change, negative = inhibition” value is reported as inactive: -0.793%.
For `CCCOC(=O)Cc1ccc(OCC(=O)N(CC)CC)c(OC)c1`, the “activity change, negative = inhibition” value was inactive: -9.52%.
For `CC(CCc1ccccc1)NC(C)C(O)c1ccc(O)cc1` (centres undefined), the “activity change, negative = inhibition” value was inactive: -11.7%.
In the case of `OCCCBr`, the “activity change, negative = inhibition” value is reported as inactive: 11.6% [at 116 µM].
In the case of `C[C@]12CC[C@H]3[C@@H](CCC4=CC(=O)CC[C@@H]43)[C@@H]1CC[C@@H]2OC(=O)CCc1ccccc1`, the “activity change, negative = inhibition” value is reported as inactive: 2.33%.
In the case of `O=C1NCN(c2ccccc2)C12CCN(CC1COc3ccccc3O1)CC2` (centres undefined), the “activity change, negative = inhibition” value is reported as inactive: -4.06%.
In the case of `CC(C)(N)Cc1ccccc1Cl`, the “activity change, negative = inhibition” value is reported as inactive: -6.83%.
With `c1ccc2nc(N3CCNCC3)ccc2c1` the “activity change, negative = inhibition” value was inactive: 1.79%.
With `Oc1c(Br)cc(Br)cc1Br` the “activity change, negative = inhibition” value was inactive: 18.3%.
With `CCNC(=O)C[C@@H]1N=C(c2ccc(Cl)cc2)c2cc(OC)ccc2-n2c(C)nnc21` the “activity change, negative = inhibition” value was inactive: -4.71%.
For `COc1ccc(OCC(=O)N2CCN(Cc3cccc(OC)c3OC)CC2)cc1`, the “activity change, negative = inhibition” value was inactive: -29.6%.
For `NNc1ccccc1`, the “activity change, negative = inhibition” value was inactive: -16.3%.
For `Clc1cccc(N2CCNCC2)c1`, the “activity change, negative = inhibition” value was inactive: -8.08%.
For `CCCN(CCC)C(=O)Cc1c(-c2ccc(Cl)cc2)nc2ccc(Cl)cn12`, the “activity change, negative = inhibition” value was inactive: -3.54%.
In the case of `CCCOC(=O)c1cncn1C(C)c1ccccc1` (centres undefined), the “activity change, negative = inhibition” value is reported as inactive: 3.13%.
For `CC[C@@]1(O)C(=O)OCc2c1cc1n(c2=O)Cc2cc3ccccc3nc2-1`, the “activity change, negative = inhibition” value was inactive: -26.9%.
For `CN(C)CCc1c[nH]c2ccc(O)cc12`, the “activity change, negative = inhibition” value was inactive: -1.9% [at 116 µM].
For `CCCC[N+]1(C)[C@@H]2CC(OC(=O)[C@H](CO)c3ccccc3)C[C@H]1[C@@H]1O[C@@H]12` (some centres undefined), the “activity change, negative = inhibition” value was inactive: -1.3%.
With `Cc1cccc2sc(NC(=O)c3cccn(Cc4ccccc4)c3=O)nc12` the “activity change, negative = inhibition” value was inactive: 0%.
In the case of `Cc1cc(NC(=O)c2cccn(Cc3ccccc3)c2=O)no1`, the “activity change, negative = inhibition” value is reported as inactive: 22.2%.
For `O=C(CN1C(=O)CN=C(c2ccccc2)c2ccccc21)Nc1cccc(C(F)(F)F)c1`, the “activity change, negative = inhibition” value was inactive: -18.5%.
In the case of `CC(C)(C)NCC(O)c1cc(Cl)c(N)c(C(F)(F)F)c1` (centres undefined), the “activity change, negative = inhibition” value is reported as inactive: 2.09%.
With `CC(C)=CC1C(C(=O)OCN2C(=O)C3=C(CCCC3)C2=O)C1(C)C` (centres undefined) the “activity change, negative = inhibition” value was inactive: -10%.
With `Cc1ncc(CNC(=O)N(CCCl)N=O)c(N)n1` the “activity change, negative = inhibition” value was inactive: -8.89%.
With `COc1cc(C[C@@H](C)N)c(OC)cc1C` the “activity change, negative = inhibition” value was inactive: -4.53% [at 116 µM].
In the case of `CC(C)(O)C(Cl)(Cl)Cl`, the “activity change, negative = inhibition” value is reported as inactive: -1.95%.
For `CCOc1ccc(CN(CCc2ccc3c(c2)OCO3)Cc2cccc(C)c2)cc1`, the “activity change, negative = inhibition” value was inactive: -29.3%.
With `Cc1cc(OCC(=O)N2CCN(CCc3ccccn3)CC2)cc(C)c1Cl` the “activity change, negative = inhibition” value was inactive: -13.2%.
With `Oc1cccc2cccnc12` the activity change, negative = inhibition was “inactive”.
In the case of `COc1cc(CC(C)N)cc(OC)c1OC` (centres undefined), the “activity change, negative = inhibition” value is reported as inactive: -2.86% [at 116 µM].
For `Cc1ccc(Cl)c(O)c1`, the “activity change, negative = inhibition” value was inactive: 3.06%.
For `COc1ccc2[nH]cc(CCN(C(C)C)C(C)C)c2c1`, the “activity change, negative = inhibition” value was inactive: 3.35% [at 116 µM].
With `CN1C[C@@H](NS(=O)(=O)N(C)C)C[C@@H]2c3cccc4c3c(cn4C)C[C@H]21` the “activity change, negative = inhibition” value was inactive: 4.12%.
For `Cc1cccc(C2CC(=O)Oc3c2c(=O)oc2ccccc32)c1` (centres undefined), the “activity change, negative = inhibition” value was inactive: 9.77%.
For `COc1ccc(CN2CCN(C(=O)COc3ccccc3)CC2)c(OC)c1`, the “activity change, negative = inhibition” value was inactive: -26.8%.
With `Oc1ccc2c3c1O[C@H]1c4[nH]c5c(c4C[C@@]4(O)[C@@H](C2)N(CC2CC2)CC[C@]314)C[C@@]1(O)[C@H]2Cc3ccc(O)c4c3[C@@]1(CCN2CC1CC1)[C@H]5O4` the “activity change, negative = inhibition” value was inactive: 5.17%.
For `CCC1(c2ccccc2)CCC(=O)NC1=O` (centres undefined), the “activity change, negative = inhibition” value was inactive: -5.88%.
With `c1cc2ccc3cccc4ccc(c1)c2c34` the “activity change, negative = inhibition” value was inactive: -2.38% [at 116 µM].
With `COc1ccc2c3c1O[C@H]1[C@@H](O)C=C[C@H]4[C@@H](C2)N(C)CC[C@@]341` the “activity change, negative = inhibition” value was inactive: -25.6% [at 116 µM].
For `CCCCC(CC)COC(=O)c1ccccc1C(=O)OCC(CC)CCCC` (centres undefined), the “activity change, negative = inhibition” value was inactive: 18.4% [at 116 µM].
For `Oc1ccc(Cl)cc1Cc1ccccc1`, the activity change, negative = inhibition was “inactive”.
